# Results published in the supplement of paper PMC4604168 (melanoma cell lines).
# The list shows a part of the results. Most values come without repeats; read them as rough.
# Key:
# Test in all cases: cell count relative to DMSO control; melanoma cells; higher = more viable cells
# Conditions in all cases: library dose: low library concentration; 72 h
# WM115 = test system: WM115
# WM1716 = test system: WM1716
# WM1745 = test system: WM1745
# WM3526 = test system: WM3526
# WM3619 = test system: WM3619
# WM451Lu = test system: WM451Lu
# 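Further: cell number obtained by counting DAPI-stained nuclei in high-throughput microscope images with image analysis software, screen run in 1,536-well plates.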
Compound,cell count (WM115),cell count (WM1716),cell count (WM1745),cell count (WM3526),cell count (WM3619),cell count (WM451Lu)
"C=CCn1c(=O)c2cnc(Nc3ccc(N4CCN(C)CC4)cc3)nc2n1-c1cccc(C(C)(C)O)n1 + O=C1NC(=O)/C(=C/c2ccc(-c3ccc(F)cc3O)o2)S1 [AS252424] (first compound 0.02 µM, partner dose 1 µM)",103%,88.1%,92.3%,90.1%,89.9%,127%
"C[C@]1(c2nc3c(C(N)=O)cccc3[nH]2)CCCN1 [Veliparib] + Cn1nnc2c(C(N)=O)ncn2c1=O [temozolomide] (first compound 1.4 µM, partner dose 2 µM)",83.3%,80.5%,89.2%,85.9%,97.4%,73.8%
"OCCn1cc(-c2cnc3nnn(Cc4ccc5ncccc5c4)c3n2)cn1 + O=C(Nc1cccc(Cl)c1)Nc1ncc(CCNc2ncnc3ccsc23)s1 [SNS314] (first compound 1 µM, partner dose 0.0008 µM)",98.8%,103%,115%,92.9%,88.8%,99.4%
"NC(=O)Nc1cc(-c2cccc(F)c2)sc1C(=O)N[C@H]1CCCNC1 + COC(=O)c1sccc1S(=O)(=O)Nc1ccc(Nc2ccccc2)cc1OC [GSK0660] (first compound 0.02 µM, partner dose 1 µM)",87%,95%,122%,94.2%,72.6%,138%
"NCC(=O)Nc1ccc(-n2nc(C(F)(F)F)cc2-c2ccc3c(ccc4ccccc43)c2)cc1 + CCc1ccc(CCOc2ccc(CC3SC(=O)NC3=O)cc2)nc1 [pioglitazone] (first compound 1 µM, partner dose 2 µM)",91.6%,96.2%,86%,41.9%,106%,63.9%
"CO[C@@H]1[C@H](N(C)C(=O)c2ccccc2)C[C@H]2O[C@]1(C)n1c3ccccc3c3c4c(c5c6ccccc6n2c5c31)C(=O)NC4 [Midostaurin] + NC(=O)Nc1cc(-c2cccc(F)c2)sc1C(=O)N[C@H]1CCCNC1 [AZD7762] (first compound 0.08 µM, partner dose 0.02 µM)",78.5%,70.2%,84.4%,69.2%,38.5%,112%
"C=CCn1c(=O)c2cnc(Nc3ccc(N4CCN(C)CC4)cc3)nc2n1-c1cccc(C(C)(C)O)n1 + Cn1cc(/C=C2\C(=O)Nc3cccnc32)c2ccccc21 [GW441756] (first compound 0.02 µM, partner dose 0.4 µM)",93.6%,89.5%,77.1%,83.8%,86.4%,99.1%
"CO[C@@H]1[C@H](N(C)C(=O)c2ccccc2)C[C@H]2O[C@]1(C)n1c3ccccc3c3c4c(c5c6ccccc6n2c5c31)C(=O)NC4 [Midostaurin] + Cn1cc(/C=C2\C(=O)Nc3cccnc32)c2ccccc21 [GW441756] (first compound 0.08 µM, partner dose 0.4 µM)",71.3%,67.3%,76.7%,112%,96.2%,104%
"C=CCn1c(=O)c2cnc(Nc3ccc(N4CCN(C)CC4)cc3)nc2n1-c1cccc(C(C)(C)O)n1 + COc1cc2c(Oc3ccc4[nH]c(C)cc4c3F)ncnc2cc1OCCCN1CCCC1 [cediranib] (first compound 0.02 µM, partner dose 0.4 µM)",81%,103%,74.2%,97.2%,74.9%,120%
"CN(C)S(=O)(=O)c1ccc2c(c1)/C(=C/c1cc3c([nH]1)CCCC3)C(=O)N2 + COc1cc2c(Oc3ccc4[nH]c(C)cc4c3F)ncnc2cc1OCCCN1CCCC1 [cediranib] (first compound 0.4 µM, partner dose 0.4 µM)",82%,127%,96.4%,92.5%,84.2%,84.9%
"Cc1nc(Nc2ncc(C(=O)Nc3c(C)cccc3Cl)s2)cc(N2CCN(CCO)CC2)n1 [dasatanib] + N#Cc1c(O)c2c(-c3ccc(-c4ccccc4O)cc3)csc2[nH]c1=O [A769662] (first compound 0.004 µM, partner dose 2 µM)",86.4%,76.5%,52%,100%,72.5%,85.9%
"NC(=O)Nc1cc(-c2cccc(F)c2)sc1C(=O)N[C@H]1CCCNC1 + NCC(=O)Nc1ccc(-n2nc(C(F)(F)F)cc2-c2ccc3c(ccc4ccccc43)c2)cc1 [OSU03012] (first compound 0.02 µM, partner dose 1 µM)",82.3%,89.4%,110%,43.2%,79.2%,54.5%
"NC(=O)Nc1cc(-c2cccc(F)c2)sc1C(=O)N[C@H]1CCCNC1 + O=C1NC(=O)/C(=C/c2ccc(-c3ccc(F)cc3O)o2)S1 [AS252424] (first compound 0.02 µM, partner dose 1 µM)",86.5%,84.7%,86.1%,74.2%,70%,94.3%
"NC(=O)Nc1cc(-c2cccc(F)c2)sc1C(=O)N[C@H]1CCCNC1 + COc1cc(N2CCC(N3CCN(C)CC3)CC2)ccc1Nc1ncc(Cl)c(Nc2ccccc2S(=O)(=O)C(C)C)n1 [NVP-TAE684] (first compound 0.02 µM, partner dose 0.08 µM)",91.5%,88.6%,82.3%,98.8%,45.5%,85.8%
"C[C@]1(c2nc3c(C(N)=O)cccc3[nH]2)CCCN1 [Veliparib] + O=C(O)c1ccc(-c2c[nH]c3ncc(-c4ccccc4)cc23)cc1C1CCCC1 [GSK650394] (first compound 1.4 µM, partner dose 0.16 µM)",81%,87.1%,80.1%,92%,73.9%,104%
"NC(=O)Nc1cc(-c2cccc(F)c2)sc1C(=O)N[C@H]1CCCNC1 + O=C(Nc1cccc(Cl)c1)Nc1ncc(CCNc2ncnc3ccsc23)s1 [SNS314] (first compound 0.02 µM, partner dose 0.0008 µM)",78.3%,84.4%,93.6%,93.5%,83%,93.3%
"C[C@]1(c2nc3c(C(N)=O)cccc3[nH]2)CCCN1 [Veliparib] + CC(C)CCN1c2nc(Nc3cc(F)c(O)c(F)c3)ncc2N(C)C(=O)C1C [BID1870] (first compound 1.4 µM, partner dose 0.2 µM)",87.5%,94.8%,92.5%,100%,104%,136%
"C=CCn1c(=O)c2cnc(Nc3ccc(N4CCN(C)CC4)cc3)nc2n1-c1cccc(C(C)(C)O)n1 + NCC(=O)Nc1ccc(-n2nc(C(F)(F)F)cc2-c2ccc3c(ccc4ccccc43)c2)cc1 [OSU03012] (first compound 0.02 µM, partner dose 1 µM)",85.2%,94.1%,83.7%,44.1%,63.9%,39.3%
"NC(=O)Nc1cc(-c2cccc(F)c2)sc1C(=O)N[C@H]1CCCNC1 + O=C(O)C(=O)Nc1sc2c(c1C(=O)O)CCNC2 [TCS401] (first compound 0.02 µM, partner dose 1.66667 µM)",90.5%,95.4%,89.1%,72.6%,46.9%,77.4%
"C[C@]1(c2nc3c(C(N)=O)cccc3[nH]2)CCCN1 [Veliparib] + O=C(Nc1cccc(Cl)c1)Nc1ncc(CCNc2ncnc3ccsc23)s1 [SNS314] (first compound 1.4 µM, partner dose 0.0008 µM)",67.5%,98.9%,83.2%,105%,93.8%,90.5%
"C=CCn1c(=O)c2cnc(Nc3ccc(N4CCN(C)CC4)cc3)nc2n1-c1cccc(C(C)(C)O)n1 + O=C(Nc1cccc(Cl)c1)Nc1ncc(CCNc2ncnc3ccsc23)s1 [SNS314] (first compound 0.02 µM, partner dose 0.0008 µM)",58.6%,81.9%,80.7%,64.3%,92.9%,128%
"OCCn1cc(-c2cnc3nnn(Cc4ccc5ncccc5c4)c3n2)cn1 + O=C(Nc1ccccc1)c1cc([N+](=O)[O-])ccc1Cl [GW9662] (first compound 1 µM, partner dose 2 µM)",93.6%,107%,117%,129%,173%,107%
"Cc1nc(Nc2ncc(C(=O)Nc3c(C)cccc3Cl)s2)cc(N2CCN(CCO)CC2)n1 [dasatanib] + O=C(Nc1ccccc1)c1cc([N+](=O)[O-])ccc1Cl [GW9662] (first compound 0.004 µM, partner dose 2 µM)",77.9%,84.8%,67.4%,103%,104%,41.7%
"Cc1nc(Nc2ncc(C(=O)Nc3c(C)cccc3Cl)s2)cc(N2CCN(CCO)CC2)n1 [dasatanib] + COC(=O)c1sccc1S(=O)(=O)Nc1ccc(Nc2ccccc2)cc1OC [GSK0660] (first compound 0.004 µM, partner dose 1 µM)",64.1%,60.2%,60.2%,97.1%,104%,65.3%
"NCC(=O)Nc1ccc(-n2nc(C(F)(F)F)cc2-c2ccc3c(ccc4ccccc43)c2)cc1 + CN(NC(=O)CC(=O)NN(C)C(=S)c1ccccc1)C(=S)c1ccccc1 [STA4783] (first compound 1 µM, partner dose 0.006 µM)",85.9%,70.5%,46.7%,50.4%,53.8%,62.7%
"C=CCn1c(=O)c2cnc(Nc3ccc(N4CCN(C)CC4)cc3)nc2n1-c1cccc(C(C)(C)O)n1 + CC(C)(C)c1cnc(CSc2cnc(NC(=O)C3CCNCC3)s2)o1 [SNS-032] (first compound 0.02 µM, partner dose 0.01 µM)",87.9%,87.6%,75.9%,95.2%,76.4%,105%
"C=CCn1c(=O)c2cnc(Nc3ccc(N4CCN(C)CC4)cc3)nc2n1-c1cccc(C(C)(C)O)n1 + c1cc(-c2cnn3cc(-c4ccc(OCCN5CCCCC5)cc4)cnc23)ccn1 [Dorsomorphin] (first compound 0.02 µM, partner dose 0.4 µM)",89%,80.9%,58.4%,79.5%,87%,83.4%
